The supplement of paper PMC11417369
± gives the standard deviation of the averaged measurements. This is one part of the list.

test system: PfAP2-G AP2 domain (GST-tagged); test: gcPBM binding intensity (ln(normalized median fluorescence intensity)); higher = stronger DNA binding
Summary of the method: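 Each value is the highest Masliner-normalised natural-log median intensity across replicate spots of either orientation of a probe. The probes were primer-extended double-stranded 36-bp intergenic genomic sequences on an Agilent 4 × 180k array, alongside negative controls, exposed for 1 h to GST-tagged P. falciparum DNA-binding domains expressed in E. coli. Bound protein was picked up with Alexa488 anti-GST antibody and scanned at 488 nm.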

Sequence	gcPBM binding intensity (ln)
TTTTTTTTTTTTTTGACACACATAATAAAATACAAA [CACACA_site3080]	10.2 ± 0.66
AATAAGCATATACAAACATGCATACATATAAATAAA [TGCATGCA_site338]	9.815 ± 0.064
AGCCACGTGGTATATACACACATAATCAAATAAAAT [CACACA_site9364]	10.2 ± 0.2
TATATATTTGTAACGGGTACGTAGGTGTATATTCCA [XGTACX_site6028]	11.1 ± 0.53
AAAAAAAAAAAATACACACACACATATATATATATA [CACACA_site731]	10.3 ± 0.9
TTTTTTTTTTTTTATTGTACTAAATTATAGAGGGGA [XGTACX_site2609]	10.9 ± 0.95
AAATATTTTAACGAGAGTACATAATAACAATTTATG [XGTACX_site3865]	11.3 ± 0.7
GAAAGAATAAAATTTACACACATATATAAATACATA [CACACA_site5273]	9.74 ± 0.11
TGAATAAATAGACACACACACATATATAAATATGTA [CACACA_site6159]	9.98 ± 0.24
ATAAAACAACACACTTGTACTAATTTTTTTTTTTTT [XGTACX_site8377]	11.1 ± 0.61
TATTGACAAAAAAAAAAAAGGTAAAAAAGAAAGAAA [GTGCAC_negctrl_site418]	10 ± 0.22
TTTTGTTTATGTGTGCATTATATTATATTTTTTATT [TGCATGCA_negctrl_site146]	10.1 ± 0.18
TATAAATAAATATACACACACACATATAAATATGTA [CACACA_site6504]	9.93 ± 0.028
TGTAAGAAATTGAGCGCACACATACATCTGTGGGAT [CACACA_site4945]	10.43 ± 0.042
TTATAATTTTAATGTGCACACAATTAAAATATTATA [CACACA_site5172]	10.6 ± 0.41
AAGTGGTTATAATCAACACACGTGGAATGTACTTTA [CACACA_site3700]	10.9 ± 0.75
AAGAAACCATAATATGCATGCACATATTAATAAATA [TGCATGCA_site693]	9.89 ± 0.18
AAAGAAAGGAATACGACACACAAAAAAAAAATATAT [CACACA_site1934]	10.2 ± 0.18
TAGTTGCACATGTATACACACAAAAAATATTTTATG [CACACA_site475]	10.6 ± 0.33
AATAAATATAGGTACACACACAAATATGTACATATC [CACACA_site6976]	11.7 ± 0.92
CCTCAATATTCACATACACACAATATCATCGAAGTA [CACACA_site1676]	10.1 ± 0.23
CTACATACAAGAATTAAACACACACTAATTATAAAT [CACACA_site8986]	10 ± 0.028

Sequence	gcPBM binding intensity (ln)
AATATAATTATATGTGGTACAGAAATAATATAAAAT [XGTACX_site2366]	11.4 ± 0.7
TTATAAAAGACAAAAGTGCATATATACATATGTATA	9.98 ± 0.16
TTCTTTTTTTTTCTGGGTACATATATTCCAATCACT [XGTACX_site4770]	11.3 ± 0.88
CCATCTTTTTTACGATGTACAAGTATAAGGTATACG [XGTACX_site2697]	10.9 ± 0.53
TATATATAATAAGAAGGTACACGTAAGTAATAATTT [XGTACX_site934]	11 ± 0.54
TTTATATGTTTTGTATTTTTAATAAATATTTTATTA [TGCATGCA_negctrl_site20]	9.84 ± 0.099
TATAACTTTTATAGGTGTACCCAATATTATATATAG [XGTACX_site7673]	11.4 ± 0.84
TGTAAAACCTCCTACACACACCAATTAACTATTCTA [CACACA_site7074]	9.875 ± 0.021
TATATATATATTATTAGTACTTATTTTTTTTCATAT [XGTACX_site1279]	11.2 ± 0.58
TTATATTATAGACACACACACAAAAAAAAAAAAAAA [CACACA_site3816]	9.97 ± 0.3
AAATAAATAAATTAACGTACATAATAACATTAATAT [XGTACX_site8567]	11.2 ± 0.79
ATATATATATATGTATGTACACATATTTTTTAACTT [XGTACX_site431]	11.5 ± 0.78
ATGTATATATATTTGTGTACATATTTAGGAAATAAA [XGTACX_site2904]	11.6 ± 1
AATTAAATTTATATGAATGTCAATTATATTGTTATA [XGTACX_negctrl_site261]	9.64 ± 0.16
ATTATCCATGCATTTACACACACACTAAAAAAAATT [CACACA_site7848]	10.3 ± 0.34
TTATAAAATGGGCAAACACACACAAAAAAAAGATAT [CACACA_site8476]	10.4 ± 0.21
AATAAATTACTATGTACACACATAAGAGTATAAATA [CACACA_site6940]	11.4 ± 0.91
AAAAAGTTACATGGTGGTACTCAAATAAAATATTCT [XGTACX_site5993]	11.3 ± 0.79
TTGAATTAAAAACATACATGCATATATATATATATA [TGCATGCA_site319]	9.84 ± 0.46
TTTTTTTTTTTTTGATGTACATAAATTAAGAATTAT [XGTACX_site7789]	11.3 ± 0.93
AATATATCTTTTTACGGCAACCATATTTTTCCCATT [CACACA_negctrl_site963]	10.21 ± 0.064
TATTAACAAAATATAGCACACATAAATATATATTTA [CACACA_site8005]	9.98 ± 0.071

Sequence	gcPBM binding intensity (ln)
TATTATGTTATATATTGTACATGTTTATTGAAACAA [XGTACX_site5605]	11.1 ± 0.59
TTTATATGTGAAAAAAGTACAAGGAAAAAATTAAAC [XGTACX_site7269]	11.5 ± 0.92
TTTTTTTTAGTATGAACACACATATATATTATAAAA [CACACA_site2935]	10.1 ± 0.25
ACGGAAAAAGAAAAGGTGCATATGGACACAATATAT	11.1 ± 0.67
TATTACATACAATATTGTACATATCATATTTTGAAT [XGTACX_site2191]	10.8 ± 0.4
TTATTTTAATATAAAATACACACTACTATTATAAAT [CACACA_site1470]	10.1 ± 0.11
TAATTATTAAAACATTGTACATTATTATAAACAATT [XGTACX_site4489]	10.8 ± 0.46
ATATATAAATATATTACACACTTTTTCTTTTTTTTT [CACACA_site7332]	9.54 ± 0.36
ATAGAAATATTATATTGTACGAACAGTTATTAACAA [XGTACX_site2137]	11.2 ± 0.68
ATTATTTGTTTAAATTCACACACGTATATATATTTA [CACACA_site3050]	10.3 ± 0.24
ACATGTAAATGGAAAAGTACTAATAACTTGTATTGG [XGTACX_site5181]	11.1 ± 0.45
AAACAGCATGGTATACCTATAAAATATATATACTAA [GTGCAC_negctrl_site39]	10.1 ± 0.18
TTTTCCATAAGAATTACACACAGAAAGGATAAGTAT [CACACA_site105]	10.2 ± 0.18
CTTATATTAATTATTACACACATATTTATAAATGCA [CACACA_site6501]	10.1 ± 0.37
TCTGAAACAAGAAAAAGTACACAAATTACAAAACTA [XGTACX_site7641]	11.5 ± 1
AAAAAAAATTCACACTGTACAAAAGCATAAATAAAC [XGTACX_site5408]	10.7 ± 0.37
GTATATAAATATATATATATATATATATCTATATTT [CACACA_negctrl_site871]	9.57 ± 0.028
GTATTTTTACAAATTTGTACATATATATGAATATAC [XGTACX_site6717]	11 ± 0.49
AAAGAAAAATTAACATGTACAAAAATTACTTGTTCA [XGTACX_site6725]	10.8 ± 0.43
TTTTGTAAAAAGAAAAATTAGAATATATCGTATATA [XGTACX_negctrl_site617]	9.615 ± 0.049
ATATTTACCTTTGTATGTACATATATAAAATATATC [XGTACX_site6367]	11.4 ± 0.79
ATTGGGTACAAATACACACACATATATATATTAAGA [CACACA_site5330]	11.2 ± 0.83

Sequence	gcPBM binding intensity (ln)
AGTGTCATATTAACACGTACATAATTATTGTAGAGA [XGTACX_site568]	11.5 ± 1
TAATAAATACAAAAATGTACACACATATATATATTT [XGTACX_site7430]	11.2 ± 0.83
TATATATATATTATCACACACTCACGTTTGACAAAA [CACACA_site689]	9.97 ± 0.18
TTATTTATTTATTCATGTACGTGTATTTTTTAAAAA [XGTACX_site7915]	11.5 ± 0.88
GTGGAACATATGAACTCACACACATTTTCACTTAAA [CACACA_site3683]	10.2 ± 0.2
ATGAACATATCAATTCTCAAAATAGGATGAGAGCAT [CACACA_negctrl_site230]	9.83 ± 0.11
AATTTTTGTATTTTTAGTACTTAATTTCAAAATAAC [XGTACX_site4234]	11.2 ± 0.6
AATATTATAAATGTCACACATATATTCAAATATATA [CACACA_site4736]	9.875 ± 0.035
AAATAATGTTTGAATTGTACACATATTTGTGTTTCT [XGTACX_site4603]	11.2 ± 0.79
ATGTTGCACAGTGGAAGAATTAAAAATAAATAAATA [XGTACX_negctrl_site581]	9.925 ± 0.035
GTGGAACGTATATTTTCACACACTCTCAAAAGTACA [CACACA_site8722]	11.1 ± 0.69
TATTTTGAAACTAAAAGACATAGAGAAAACAAAAAA [CACACA_negctrl_site1306]	10.2 ± 0.18
ATATAAGGATTAATATGTACATATATATATATATTT [XGTACX_site1390]	11.1 ± 0.67
TTATGGAATAATCACGTACACACAAGAAAAAAAAAA [CACACA_site526]	11.4 ± 0.83
GACATTGATACCAGTAGTACCTATAGATGTTTGTTT [XGTACX_site5736]	11 ± 0.47
TATATACACCCACATACACACAAATAAAAAAACACC [CACACA_site3414]	10.7 ± 0.45
TTATAGAAAATGGAATAGAATGGAATGGAAGAAATA [CACACA_negctrl_site1086]	10.1 ± 0.092
ATTATATATAAGAAGAGTACTGAATATGTGCAATAT [XGTACX_site4471]	11 ± 0.56
TTGAGGAAATAACAGTGTACAAACAAATTATTACCA [XGTACX_site7082]	11.1 ± 0.57
TACATATATATATATATATATATATATATCATTATG [XGTACX_negctrl_site293]	9.79 ± 0.24
TATAAAAAAAAAAAATATATATATATATAAATATAA [TGCATGCA_negctrl_site367]	9.52 ± 0.11
TAAGAAAAAAAAAAAAAAAAAAAAAAAAAAAAAAAA [CACACA_negctrl_site760]	9.71 ± 0.22
